Values joined by “and” are separate entries in the source; they are usually repeats but may differ in a detail not shown here. Equal entries are not always repeated. The shares of active, inactive and inconclusive entries below differ from those in the screen. For some assays here: Where the call is inconclusive, the potency comes from a doubtful curve fit. Active and inactive are the calls of the source. Unless noted, the call rests on the fitted dose curve; in most records, active means well fitted curve in the direction sought with a large enough effect in the repeat runs; inconclusive means weak or mixed curves; inactive means no such curve, though single readings can be large; an effect the other way counts as inactive or inconclusive.
Experiments:
[1] = qHTS assay to identify small molecule antagonists of the sonic hedgehog signaling (Shh) pathway (AID 1259369; calls by dose curve; further: nearly all actives have a fitted effect of over 45% in size; further: potency means the concentration at half of the fitted maximal effect)
How it was run: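 Conditioned medium drives Shh signalling in 3T3Gli1-Luc cells; compounds in DMSO co-applied, 24hr at 37 C, then luciferase luminescence.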

[2] = target: Estrogen receptor beta (Homo sapiens) (UniProt Q92731); assay: qHTS assay to identify small molecule antagonists of the estrogen receptor beta (ER-beta) signaling pathway (AID 1259378; active means well fitted inhibition curve with a large enough effect in the signal ratio in the repeat runs, not every such curve was filed as active; inconclusive means weak or mixed curves, or effect the other way; inactive means no such curve, though single readings can be large or run the other way; the % refers to the signal ratio; further: potency means the concentration at half of the fitted maximal effect); settings: ER-beta-UAS-bla HEK293T, beta-lactamase FRET ratio, 16 h; activity, negative = inhibition: at 92.4 µM (top of the series) unless noted
How it was run: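 ER-beta-UAS-bla HEK293T (GripTite) cells in 2% charcoal-stripped FBS medium were preincubated 6 hr at 37C, dosed with compound, then stimulated with 1 nM E2 (final) for 16 hr; beta-lactamase reporter read by B/G FRET fluorescence after 2 hr substrate loading.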

[3] = qHTS assay to identify small molecule agonists of the estrogen receptor beta (ER-beta) signaling pathway - cell viability counter screen (AID 1259380); further: nearly all actives have a fitted effect of over 30% in size; further: potency means the concentration at half of the fitted maximal effect
How it was run: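 Cells used were ER-beta-UAS-bla HEK293T in medium with 2% charcoal-stripped FBS. They were treated for 16 hr at 37C. Viability came from CellTiter-Glo luminescence.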

[4] = qHTS assay to identify small molecule agonists or antagonists of the thyroid stimulating hormone receptor (TSHR) signaling pathway - wild type cell line counter screen (AID 1259384; calls by dose curve); settings: HEK293 wild type, cAMP HTRF counter-screen; cAMP activity change: at 92.4 µM (top of the series), stronger effect = higher value unless noted
How it was run: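 Wild-type HEK293 cells were plated 18 h at 37 C/5% CO2, pin-dosed with compound plus Ro20-1724 medium, held 30 min at room temperature, then given cAMP-d2 and anti-cAMP-cryptate; fluorescence was read after 1 h. Fifteen concentrations, triplicate.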

[5] = qHTS assay to identify small molecule agonists of the androgen receptor (AR) signaling pathway in the presence of an antagonist - cell viability counter screen (AID 1259379); further: nearly all actives have a fitted effect of over 25% in size; further: potency means the concentration at half of the fitted maximal effect
How it was run: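 A CellTiter-Fluor read-out measured viability of MDA-kb2 reporter cells (MMTV promoter with AR and GR response elements). Treatment: nilutamide 3.0uM final with compounds at 15 concentrations, 16 hr, 37C, 0% CO2.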

[6] = target: Estrogen receptor beta (Homo sapiens) (UniProt Q92731); assay: qHTS assay to identify small molecule agonists of the estrogen receptor beta (ER-beta) signaling pathway (AID 1259377; active means well fitted activation curve with a large enough effect in the signal ratio in the repeat runs, not every such curve was filed as active; inconclusive means weak or mixed curves, or effect the other way; the % refers to the signal ratio; further: potency means the concentration at half of the fitted maximal effect); settings: ER-beta-UAS-bla HEK293T, beta-lactamase FRET ratio, 16 h; activation: at 92.4 µM (top of the series) unless noted
How it was run: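 Screening used GripTite ER-beta-UAS-bla cells held in 2% charcoal-stripped FBS medium. After overnight (16 hr) compound incubation at 37C, beta-lactamase activity was detected with a FRET substrate by fluorescence.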

[7] = qHTS assay to identify small molecule antagonists of the estrogen receptor beta (ER-beta) signaling pathway - cell viability counter screen (AID 1259382); further: nearly all actives have a fitted effect of over 55% in size
How it was run: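 Agonist-stimulated (1nM E2) ER-beta-UAS-bla HEK293T cells are incubated with library compounds for 16 hr at 37C. Cell viability is then assessed in the reporter-assay wells by adding CellTiter-Glo and reading luminescence after 30 min.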
On the % scale 0 is the no-effect control and ±100 the full control effect; tags describe the fitted curve by direction and shape or compound fluorescence and quenching.

Sequence of UniProt Q92731 (Q92731 whole entry, looked up): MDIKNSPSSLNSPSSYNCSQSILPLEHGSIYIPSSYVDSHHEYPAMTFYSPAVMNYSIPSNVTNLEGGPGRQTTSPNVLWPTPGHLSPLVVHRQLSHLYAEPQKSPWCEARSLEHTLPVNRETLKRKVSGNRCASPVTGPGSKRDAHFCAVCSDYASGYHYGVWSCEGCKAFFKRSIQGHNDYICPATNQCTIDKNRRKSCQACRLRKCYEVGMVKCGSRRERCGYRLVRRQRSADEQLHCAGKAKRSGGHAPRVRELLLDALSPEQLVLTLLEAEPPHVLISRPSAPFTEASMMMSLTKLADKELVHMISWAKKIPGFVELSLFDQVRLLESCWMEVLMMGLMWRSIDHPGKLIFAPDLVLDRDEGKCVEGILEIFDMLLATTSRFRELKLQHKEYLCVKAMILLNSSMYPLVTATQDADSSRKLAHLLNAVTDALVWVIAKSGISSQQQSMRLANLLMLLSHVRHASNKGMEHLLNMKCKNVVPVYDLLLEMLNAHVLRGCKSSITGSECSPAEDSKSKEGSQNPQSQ

Cc1[nH]c(=O)c(C#N)cc1-c1ccncc1
Potency [1]: inconclusive: 30.6 µM [inhibitor] | activity, negative = inhibition [2]: inconclusive: 5.39% | Potency [3]: inconclusive: 1.54 µM [rising, single point] | cAMP activity change [4]: inconclusive: 6.91%

c1cc2c3c(c1)ccc1cccc(c13)C2
Potency [1]: inconclusive: 5.56 µM [inhibitor, single point] | activity, negative = inhibition [2]: inconclusive: 22.6%

CCc1ccc(C(=O)C(C)CN2CCCCC2)cc1 (stereo not given)
Potency [1]: inactive | Potency [5]: inactive

c1ccc2c(c1)Oc1ccccc1S2
Potency [1]: inactive and inconclusive: 1.37 µM [inhibitor, single point] | activity, negative = inhibition [2]: inconclusive: 23.4% | Potency [3]: inconclusive: 69.7 µM [cytotoxic, single point] and inactive

CCCCCCCCCC/C=C/C#N
Potency [1]: inconclusive: 0.243 µM [inhibitor, single point] | Potency [2]: inactive

Oc1cccc2cc3cccc(O)c3c(O)c12
Potency [1]: inactive | Potency [5]: inconclusive: 48.8 µM [cytotoxic, partial curve]

CNc1c2c(nn1C)CCCC2
activation [6]: inconclusive: 7.8% [at 42.5 µM]

C[C@@H]1C[C@H]2[C@@H]3CCC4=CC(=O)C=C[C@]4(C)[C@@]3(F)[C@@H](O)C[C@]2(C)[C@@]1(O)C(=O)CO
Potency [1]: active: 0.492 µM | Potency [3]: inactive

O=C(OCc1ccccc1)c1ccccc1O
Potency [1]: inconclusive: 76.4 µM [inhibitor, single point] | activity, negative = inhibition [2]: inconclusive: 8.55% | Potency [3]: inconclusive: 68.1 µM [cytotoxic, single point] | Potency [4]: inactive

C=Cc1ccccc1
Potency [6]: inactive

CCCCOCCOC(=O)COc1nc(Cl)c(Cl)cc1Cl
Potency [1]: inactive | Potency [3]: inactive | Potency [7]: inactive

CC(C)CCCCCCCCCCCCCCC(=O)O
Potency [1]: inactive | Potency [3]: active: 54.5 µM

O=[N+]([O-])c1ccc2c(c1)Cc1ccccc1-2
Potency [1]: inactive | Potency [3]: inactive

CC(C)(C)c1cc(CCC(=O)OCC(COC(=O)CCc2cc(C(C)(C)C)c(O)c(C(C)(C)C)c2)(COC(=O)CCc2cc(C(C)(C)C)c(O)c(C(C)(C)C)c2)COC(=O)CCc2cc(C(C)(C)C)c(O)c(C(C)(C)C)c2)cc(C(C)(C)C)c1O
Potency [6]: inconclusive: 26 µM [activator, partial curve]

CCCCC/C(=C\c1ccccc1)CO
Potency [1]: inconclusive: 60.4 µM [inhibitor] | Potency [3]: inconclusive: 48 µM [cytotoxic, partial curve]

CC(=O)O[C@@H]1CC2CCC1(C)C2(C)C (stereo not given in full)
Potency [6]: inactive

CC[C@@H]1C[C@H](N(Cc2cc(C(F)(F)F)cc(C(F)(F)F)c2)C(C)=O)c2cc(C(F)(F)F)ccc2N1C(=O)OC(C)C
Potency [6]: inactive

CCO[Si](C)(CCCOCC1CO1)OCC (stereo not given)
Potency [1]: inconclusive: 27.3 µM [inhibitor, single point] | activity, negative = inhibition [2]: inconclusive: 4.72%

CC(=O)c1ccc2c(c1)Cc1ccccc1-2
Potency [6]: inconclusive: 21.7 µM [fluorescent, full curve]

CC(C)C(C)(C)C(C)(C)C(C)(C)S
Potency [1]: inconclusive: 3.44 µM [inhibitor, partial curve, poor fit] | Potency [3]: inactive

CCCCCCOC(=O)c1ccccc1
Potency [1]: inactive | Potency [5]: inactive | Potency [3]: active: 27.3 µM

COc1cc(C=O)ccc1O
Potency [1]: inconclusive: 16.8 µM [inhibitor, single point] | Potency [2]: inconclusive: 30.9 µM [activator, partial curve, poor fit] | activity, negative = inhibition [2]: inconclusive: 1.98% [at 42.5 µM]

CN1Cc2c(N)cccc2C(c2ccccc2)C1 (stereo not given)
Potency [1]: inconclusive: 34.4 µM [inhibitor, partial curve, poor fit] | Potency [2]: inactive | Potency [5]: inactive | Potency [3]: inconclusive: 34.4 µM [cytotoxic, partial curve]

C[C@@H]1C[C@H]2O[C@@]3(O[C@@H]2C(C)(C)O)[C@H](O)[C@@]2(C)[C@@H]4CC[C@H]5C(C)(C)[C@@H](O[C@@H]6OC[C@@H](O)[C@H](O)[C@H]6O)CC[C@@]56C[C@@]46CC[C@]2(C)[C@@H]13
Potency [1]: inconclusive: 47.9 µM [inhibitor, single point] | Potency [3]: inconclusive: 13.5 µM [cytotoxic, partial curve]

c1ccc2cc(Nc3ccc(Nc4ccc5ccccc5c4)cc3)ccc2c1
Potency [6]: inactive

CCCC(C)C(=O)O (stereo not given)
Potency [6]: inconclusive: 58.7 µM [rising, partial curve, poor fit] | Potency [2]: inconclusive: 52.3 µM [rising, partial curve] | Potency [3]: inconclusive: 18.5 µM [cytotoxic, full curve]

BrCc1cccc(Oc2ccccc2)c1
activation [6]: inconclusive: 12.7%

O=CCCc1ccccc1
Potency [6]: inactive | Potency [3]: inactive

O=C(O)Cc1cc(I)c(Oc2ccc(O)c(I)c2)c(I)c1
Potency [6]: inconclusive: 34.4 µM [rising, partial curve] | Potency [2]: inconclusive: 24.3 µM [rising, partial curve] | Potency [3]: inconclusive: 6.86 µM [cytotoxic, full curve]

C=CCON/C(CCC)=C1\C(=O)CC(C)(C)C(C(=O)OC)=C1O
Potency [6]: inactive

CCCCCC(CC)OC(=O)CCCOc1ccc(Cl)cc1Cl (stereo not given)
Potency [6]: inactive | Potency [5]: inactive

Source: PubChem BioAssay (Tox21)
